Measured values from PubChem BioAssay (NCATS).
Several values for one entry are separate records, joined by “and”; a condition that tells them apart may be missing. Equal entries are not always repeated. Inconclusive results, whose numbers are uncertain, are shown with a selection of clear calls. A potency beside an inconclusive call is a rough fit, not a confirmed value. Activity calls are given as the source filed them. Calls come from the whole dose curve; as a rule, active = well fitted curve in the direction sought with a large enough effect; inconclusive = small, poorly fitted or top-dose-only effect, or another doubt; inactive = no such curve, though single readings can be large; an effect the other way counts as inactive or inconclusive.

Legend:
[1] = Viability qHTS for spleen associated tyrosine kinase inhibitor (SYKi) naive MV4-11 cells (AID 1963823); details: MV4-11 AML viability, CellTiter-Glo luminescence, 72 h; viability (% of control): at 45 µM (top of the series); note: nearly all actives have a fitted effect of over 40% in size
In short: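 Cells: MV4-11, SYK inhibitor naive, 500 per well. Treatment: library compounds, 72 hr, 37 C, 5% CO2. Read-out: CellTiter-Glo luminescence after 10 min RT.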

[2] = Viability qHTS for spleen associated tyrosine kinase inhibitor (SYKi) drug resistant MV4-11 cells (AID 1963824); details: SYKi-resistant MV4-11 viability, CellTiter-Glo, 72 h; series mostly up to 45 µM; note: nearly all actives have a fitted effect of over 35% in size
In short: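 CellTiter-Glo luminescence, read 10 min after reagent addition, reports viability after a 72 hr compound exposure. Cells are an MV4-11 line made resistant to SYK inhibition, seeded at 500 per well onto compound-containing plates.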

[3] = Quantitative highthroughput screen to assess conditional lethalithy of NOMO1 cells grown in RPMI1640 with dialyzed fetal bovine serum (RPMI+ds) (AID 1963877); details: NOMO1 in RPMI+dialyzed FBS viability, ATP luminescence, 48 h; series mostly up to 45.8 µM; note: nearly all actives have a fitted effect of over 30% in size;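 for Viability: 100% = DMSO control wells and 0% = empty wells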
In short: (§1)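 Each medium arm—HPLM with 10% dialyzed FBS, or RPMI1640 with 5 mM glucose and 10% untreated or dialyzed FBS—was screened against an 11-point, 3-fold compound titration for 48 h at 37 °C, with CellTiter-Glo luminescence as endpoint.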

[4] = Quantitative highthroughput screen to assess conditional lethalithy of NOMO1 cells grown in Human Plasma-Like Medium with dialyzed fetal bovine serum (HPLM+ds) (AID 1963878); details: NOMO1 AML cells in HPLM+ds, CellTiter-Glo viability, 48 h; viability: at 45.8 µM (top of the series); note: nearly all actives have a fitted effect of over 35% in size;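 for Viability: 100% = DMSO wells and 0% = empty wells on each plate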
In short: as §1

[5] = Quantitative highthroughput screen to assess conditional lethalithy of P12 Ichikawa cells grown in Human Plasma-Like Medium with dialyzed fetal bovine serum (HPLM+ds) (AID 1963879); details: ATP luminescence, 48 h; Potency: viability; series mostly up to 45.8 µM; note: nearly all actives have a fitted effect of over 35% in size
In short: as §1

[6] = Quantitative highthroughput screen to assess conditional lethalithy of P12 Ichikawa cells grown in RPMI1640 with dialyzed fetal bovine serum (RPMI+ds) (AID 1963880); details: ATP luminescence, 48 h; Potency: P12-Ichikawa viability; series mostly up to 45.8 µM; note: nearly all actives have a fitted effect of over 35% in size;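 for Viability: 100% = DMSO wells and 0% = empty wells on each plate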
In short: as §1

[7] = Quantitative highthroughput screen to assess conditional lethalithy of P12 Ichikawa cells grown in RPMI1640 with untreated serum (RPMI+s) (AID 1963881); details: ATP luminescence, 48 h; Potency: viability; series mostly up to 45.8 µM; note: nearly all actives have a fitted effect of over 35% in size;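 for Viability: 100% = DMSO wells and 0% = empty wells without cells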
In short: as §1

[8] = Quantitative highthroughput screen to assess conditional lethalithy of SEM cells grown in Human Plasma-Like Medium with dialyzed fetal bovine serum (HPLM+ds) (AID 1963882); details: SEM B-ALL cells in HPLM+ds, CellTiter-Glo viability, 48 h; series mostly up to 45.8 µM; note: nearly all actives have a fitted effect of over 35% in size
In short: as §1

[9] = Quantitative highthroughput screen to assess conditional lethalithy of SEM cells grown in RPMI1640 with unreated serum (RPMI+s) (AID 1963883); details: SEM B-ALL cells, CellTiter-Glo viability, 48 h; viability: at 45.8 µM (top of the series); note: nearly all actives have a fitted effect of over 35% in size;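 for Viability: 100% = DMSO wells and 0% = empty wells without cells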
In short: as §1

[10] = Quantitative highthroughput screen to assess conditional lethalithy of SEM cells grown in RPMI1640 with dialyzed fetal bovine serum (RPMI+ds) (AID 1963884); details: SEM B-ALL cells, RPMI+dialyzed FBS, CellTiter-Glo viability, 48 h; viability: at 45.8 µM (top of the series); note: nearly all actives have a fitted effect of over 35% in size;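 for Viability: 100% = DMSO control wells and 0% = empty wells without cells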
In short: as §1

[11] = Cellular viability qHTS for adrenocortical cancer (ACC) cell line SW-13 (AID 1963989); details: SW-13 ACC cells viability, CellTiter-Glo, 48 h; activity (max response): stronger effect = lower value; note: nearly all actives have a fitted effect of over 65% in size;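 for activity (max response): cells grown in serum-free medium with ITS supplement; % is set by controls: 0 for no effect and ±100 for the full control effect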
In short: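 SW-13 cells in ITS-supplemented serum-free DMEM were plated overnight, then exposed for 48 h at 37C to compound titrations (up to 46 uM final). Viability was read by CellTiter-Glo luminescence; four-parameter logistic fits gave IC50 and efficacy.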

[12] = Cellular viability qHTS for adrenocortical cancer (ACC) cell line NCI-H295R (AID 1963990); details: CellTiter-Glo ATP luminescence, 48 h; activity change, negative = viability loss: at 46.1 µM (top of the series); note: nearly all actives have a fitted effect of over 60% in size;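 for activity change, negative = viability loss: 0% = DMSO only wells and -100% = full killing with cytotoxic reference compound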
In short: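 Luminescent ATP read-out (CellTiter-Glo, 20 min RT) after 48 h drug exposure of NCI-H295R cells; a titration up to 46 uM final. Data normalized to doxorubicin (100% inhibition) and DMSO (0%); 4-parameter fit gives IC50, max response.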

[13] = Quantitative highthroughput screen to assess conditional lethalithy of NOMO1 cells grown in RPMI1640 with untreated serum (RPMI+s) (AID 1963876); details: NOMO1 AML cells in RPMI+serum, CellTiter-Glo viability, 48 h; viability: at 45.8 µM (top of the series); note: nearly all actives have a fitted effect of over 35% in size;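 for Viability: 100% = DMSO wells and 0% = empty wells without cells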
In short: as §1
Potency is the fitted concentration of half-maximal effect; tags give direction and shape of the fitted curve.

SMILES	Potency [1]	Potency [2]	Potency [3]	Potency [4]	Potency [5]	Potency [6]	Potency [7]	Potency [8]	Potency [9]	Potency [10]	Potency [11]	Potency [12]	Potency [13]	activity (max response) [11]
Cc1nc2ccc(CN(C)c3ccc(C(=O)N[C@@H](CCC(=O)O)C(=O)O)s3)cc2c(=O)[nH]1	inconclusive: 0.0119 µM [cytotoxic, full curve]	inconclusive: 0.0133 µM [cytotoxic, full curve]	inconclusive: 0.187 µM [cytotoxic, full curve]	inconclusive: 0.105 µM [cytotoxic, full curve]	inconclusive: 0.148 µM [cytotoxic, full curve]	inconclusive: 0.418 µM [cytotoxic, full curve]	inconclusive: 0.418 µM [cytotoxic, full curve]	inconclusive: 0.059 µM [cytotoxic, full curve]	inactive	inconclusive: 0.132 µM [cytotoxic, full curve]	inconclusive: 580 nM [cytotoxic, full curve] and inconclusive: 501 nM [cytotoxic, full curve]	inconclusive: 1.03 µM [cytotoxic, partial curve, poor fit] and inactive	–	–
CCOc1cc(N2CCC(O)CC2)ccc1Nc1ncc2c(n1)N(C)c1ccccc1C(=O)N2C	active: 1.86 µM	active: 1.03 µM	inconclusive: 0.418 µM [cytotoxic, full curve]	inconclusive: 0.332 µM [cytotoxic, full curve]	active: 2.09 µM	active: 3.32 µM	–	–	–	–	–	–	–	–
CN(C)CCCC1(c2ccc(F)cc2)OCc2cc(C#N)ccc21 (stereo unspecified)	inconclusive: 3.26 µM [cytotoxic, partial curve, poor fit]	inconclusive: 5.8 µM [cytotoxic, partial curve, poor fit]	–	–	–	inactive	–	–	–	inactive	–	–	inactive	–
NCCCC(O)(P(=O)(O)O)P(=O)(O)O	inactive	inactive and inconclusive: 14.8 µM [cytotoxic, partial curve, poor fit]	–	–	–	–	–	–	active: 2.96 µM	–	inconclusive: 29.1 µM [cytotoxic, single point]	inconclusive: 23.1 µM [cytotoxic, partial curve, poor fit]	inconclusive: 11.8 µM [cytotoxic, single point]	–
CCCCOCCOc1nc(-c2ccc(C(=O)O)c(F)c2)sc1C	inconclusive: 4.68 µM [cytotoxic, partial curve, poor fit]	inconclusive: 6.61 µM [cytotoxic, partial curve]	–	–	–	inconclusive: 13.2 µM [cytotoxic, partial curve, poor fit]	–	–	inactive	–	–	–	inactive	–
CNNCc1ccc(C(=O)NC(C)C)cc1	inactive and inconclusive: 16.6 µM [cytotoxic, partial curve]	inactive and inconclusive: 3.72 µM [cytotoxic, full curve, poor fit]	inactive	inconclusive: 23.5 µM [cytotoxic, single point]	inactive	inconclusive: 20.9 µM [cytotoxic, single point]	inconclusive: 20.9 µM [cytotoxic, single point]	inconclusive: 18.7 µM [cytotoxic, partial curve]	inconclusive: 16.6 µM [cytotoxic, partial curve, poor fit]	inconclusive: 13.2 µM [cytotoxic, partial curve]	–	–	–	–
CNC(=O)c1ccc(N2C(=S)N(c3ccc(C#N)c(C(F)(F)F)c3)C(=O)C2(C)C)cc1F	inconclusive: 18.6 µM [cytotoxic, partial curve]	inconclusive: 18.6 µM [cytotoxic, partial curve]	–	–	–	inactive	–	–	inactive	–	–	–	inactive	inactive: -1.24%
CCC(=O)NCC[C@@H]1CCc2ccc3c(c21)CCO3	inactive	inactive	–	–	–	–	–	active: 3.32 µM	active: 5.26 µM	active: 5.26 µM	–	–	inactive	inactive: -6.57%
CC(C)NCC(O)c1ccc(O)c(O)c1 (stereo unspecified)	inconclusive: 15 µM [cytotoxic, partial curve, poor fit] and inactive	inconclusive: 23.7 µM [cytotoxic, single point] and inactive	–	–	–	–	–	inconclusive: 18.7 µM [cytotoxic, partial curve]	inconclusive: 18.7 µM [cytotoxic, partial curve]	inconclusive: 29.6 µM [cytotoxic, single point]	–	–	active: 5.9 µM	–
NC1(C(=O)N[C@@H](CCO)c2ccc(Cl)cc2)CCN(c2ncnc3[nH]ccc23)CC1	active: 0.461 µM	active: 0.651 µM	inconclusive: 16.6 µM [cytotoxic, partial curve]	inconclusive: 16.6 µM [cytotoxic, partial curve]	inconclusive: 5.26 µM [cytotoxic, partial curve]	inconclusive: 1.48 µM [cytotoxic, full curve]	inconclusive: 1.18 µM [cytotoxic, full curve]	inconclusive: 3.72 µM [cytotoxic, full curve]	–	–	–	–	–	–
CC(C)[C@H](CO)Nc1nc(Nc2ccc(C(=O)O)c(Cl)c2)c2ncn(C(C)C)c2n1	inconclusive: 8.93 µM [cytotoxic, partial curve] and inconclusive: 14.8 µM [cytotoxic, partial curve]	inconclusive: 7.96 µM [cytotoxic, partial curve, poor fit]	inconclusive: 5.26 µM [cytotoxic, partial curve, poor fit]	inconclusive: 18.7 µM [cytotoxic, partial curve]	inconclusive: 0.264 µM [cytotoxic, full curve, poor fit]	inconclusive: 4.69 µM [cytotoxic, partial curve]	inconclusive: 0.469 µM [cytotoxic, full curve]	inconclusive: 20.9 µM [cytotoxic, partial curve, poor fit]	inconclusive: 20.9 µM [cytotoxic, partial curve, poor fit]	inconclusive: 23.5 µM [cytotoxic, single point]	–	inactive	–	–
NCCS(=O)(=O)O	inactive	inactive	–	–	–	–	inactive	–	–	inactive	–	inconclusive: 32.6 µM [cytotoxic, partial curve, poor fit]	inactive	–
Nc1ccccc1NC(=O)c1ccc(CNc2nccc(-c3cccnc3)n2)cc1	inconclusive: 0.468 µM [cytotoxic, full curve, poor fit]	active: 231 nM and inconclusive: 263 nM [cytotoxic, full curve, poor fit]	–	–	–	–	active: 2.09 µM	–	–	active: 0.662 µM	active: 3.98 µM	active: 0.355 µM	active: 2.64 µM	–
COc1cc2c(c(OC)c1OC)-c1ccc(OC)c(=O)cc1[C@@H](NC(C)=O)CC2	active: 23.7 nM and active: 18.6 nM	active: 16.8 nM and active: 14.8 nM	inconclusive: 14.8 µM [cytotoxic, partial curve, poor fit]	inconclusive: 1.18 µM [cytotoxic, partial curve, poor fit]	inconclusive: 0.0026 µM [cytotoxic, full curve]	inconclusive: 0.0066 µM [cytotoxic, full curve]	inconclusive: 0.0033 µM [cytotoxic, full curve, poor fit]	inconclusive: 0.0264 µM [cytotoxic, full curve]	inactive	inactive	active: 25.9 nM and active: 35.5 nM	–	–	–
FC(F)(F)c1ccc(Nc2nc3ccc(Oc4ccnc(-c5ncc(C(F)(F)F)[nH]5)c4)cc3[nH]2)cc1	active: 1.64 µM	active: 4.17 µM	inconclusive: 37.2 µM [cytotoxic, single point]	inactive	inconclusive: 23.5 µM [cytotoxic, single point]	inconclusive: 23.5 µM [cytotoxic, partial curve]	inconclusive: 23.5 µM [cytotoxic, single point]	–	–	–	active: 22.4 µM	–	–	–
CCOC(=O)c1c(CSc2ccccc2)n(C)c2cc(Br)c(O)c(CN(C)C)c12	inconclusive: 13.2 µM [cytotoxic, partial curve]	active: 10.5 µM	–	–	–	–	inconclusive: 33.2 µM [cytotoxic, single point]	–	inconclusive: 23.5 µM [cytotoxic, single point]	–	inconclusive: 28.2 µM [cytotoxic, single point]	inconclusive: 35.5 µM [cytotoxic, single point]	inconclusive: 18.7 µM [cytotoxic, partial curve, poor fit]	–
COc1ccccc1N1CCN(CCN(C(=O)C2CCCCC2)c2ccccn2)CC1	inconclusive: 16.4 µM [cytotoxic, partial curve] and inconclusive: 18.6 µM [cytotoxic, partial curve]	inconclusive: 16.4 µM [cytotoxic, partial curve] and inconclusive: 20.9 µM [cytotoxic, partial curve]	–	–	–	–	–	–	inactive	–	inconclusive: 22.4 µM [cytotoxic, partial curve, poor fit]	–	inactive	–
